Measurements published in PubChem BioAssay AID485360 (National Center for Advancing Translational Sciences (NCATS), 2010).
Screen size: about 230,000 compounds; about 1,500 (0.65%) were called active. Inconclusive means that the source gave no clear call. Such entries were picked first, then a sample of the others. The call rests on the fitted dose curve; in most records, active means well fitted inhibition curve with a large enough effect; inconclusive means small, poorly fitted or top-dose-only effect; inactive means no such curve, though single readings can be large or run the other way. Potencies of inconclusive entries are doubtful fits and often do not repeat.

Molecular target: Lethal(3)malignant brain tumor-like protein 1 (Homo sapiens) (UniProt Q9Y468)
Test: qHTS Assay for the Inhibitors of L3MBTL1; further: nearly all actives have a fitted effect of over 60% in size
Details: AlphaScreen L3MBTL1–H3K9me1 peptide binding; activity, negative = inhibition: at 57.1 µM (top of the series)
Procedure, shortened: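 Read-out is AlphaScreen signal from streptavidin donor and nickel chelate acceptor beads (10 ug/mL final each) bridging L3MBTL1 (50 nM) and biotinylated K9-monomethylated H3(1-15) peptide (75 nM), after 30 min compound exposure at room temperature.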
On the % scale 0 is the no-effect control and ±100 the full control effect; potency means the concentration at half of the fitted maximal effect; tags describe the fitted curve by direction and shape.

UniProt Q9Y468, sequence (Q9Y468 whole entry, looked up): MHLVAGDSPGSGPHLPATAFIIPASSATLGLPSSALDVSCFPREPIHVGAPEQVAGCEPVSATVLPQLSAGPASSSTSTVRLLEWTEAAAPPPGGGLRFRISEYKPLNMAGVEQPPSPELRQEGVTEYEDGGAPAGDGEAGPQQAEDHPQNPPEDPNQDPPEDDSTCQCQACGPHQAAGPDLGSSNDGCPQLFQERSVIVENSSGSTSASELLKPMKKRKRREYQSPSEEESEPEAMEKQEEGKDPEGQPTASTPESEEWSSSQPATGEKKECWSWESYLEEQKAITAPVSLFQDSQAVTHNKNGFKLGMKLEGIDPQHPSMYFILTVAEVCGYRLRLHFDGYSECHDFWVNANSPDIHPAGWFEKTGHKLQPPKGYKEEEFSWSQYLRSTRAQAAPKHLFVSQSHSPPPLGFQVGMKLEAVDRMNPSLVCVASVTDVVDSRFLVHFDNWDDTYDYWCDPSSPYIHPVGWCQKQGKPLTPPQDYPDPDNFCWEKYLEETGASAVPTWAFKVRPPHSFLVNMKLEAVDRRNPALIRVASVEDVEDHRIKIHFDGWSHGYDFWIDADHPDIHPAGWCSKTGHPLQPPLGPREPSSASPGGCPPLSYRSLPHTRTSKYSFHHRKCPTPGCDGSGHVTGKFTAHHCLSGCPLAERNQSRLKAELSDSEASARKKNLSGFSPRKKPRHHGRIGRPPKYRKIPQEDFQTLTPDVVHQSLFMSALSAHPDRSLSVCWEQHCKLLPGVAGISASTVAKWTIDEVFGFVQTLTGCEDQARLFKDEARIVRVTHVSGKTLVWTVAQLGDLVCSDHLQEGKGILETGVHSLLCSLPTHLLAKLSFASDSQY

SMILES | Potency | activity, negative = inhibition
O=[N+]([O-])c1cccc(Cl)c1CSc1ccccn1 | inactive | –
O=c1c2ccccc2nc2c3ccccc3c(NCc3cccnc3)nn12 | inconclusive: 3.55 µM [inhibitor, single point] | –
COc1cccc(/C=N/Nc2ncnc3scc(-c4ccccc4)c23)c1O | active: 31.6 µM | –
CCCCOc1ccc(-c2c(C#N)c(N)[nH]c(=S)c2C#N)cc1 | inactive | –
CCc1ccc(Nc2nnc(SCC(=O)NC(=O)CN3CCCC3=O)s2)cc1 | inactive | –
CS(=O)(=O)N1CCN(C(=S)NCc2ccc(F)cc2)CC1 | inconclusive: 0.631 µM [inhibitor, single point] | –
O=c1cc(CSc2ccc(Cl)cc2)[nH]c2[nH]n(-c3ccccc3)c(=O)c12 | inconclusive: 28.2 µM [inhibitor, partial curve] | –
COc1ccc(OCC(=O)Nc2sc3c(c2C(=O)NCC2CCCO2)CCC3)cc1 (centres undefined) | inconclusive: 35.5 µM [inhibitor, single point] | –
Cc1cc(NC(=O)CCN2CCN(C)CC2)ccc1Br | – | inactive: 0.96% [at 2.29 µM]
CN1/C(=c2/s/c(=C3/C(=O)N(c4ccccc4)NC3=Nc3ccccc3)n(C)c2=O)C(C)(C)c2ccccc21 | inconclusive: 17.8 µM [inhibitor, partial curve] | –
C=CCn1c(CSc2nc3ccccc3s2)nnc1SCC(=O)NCc1ccco1 | inconclusive: 28.2 µM [inhibitor, single point] | –
CC1(C)Cc2nc3oc4c(NCc5ccccc5)ncnc4c3cc2CO1 | inconclusive: 3.98 µM [inhibitor, single point] | –
O=C(O)[C@@H](c1ccccc1)N1Cc2ccccc2C1=O | active: 17.8 µM | –
Cc1ccc(NC2=CC(=O)C(=O)c3ccccc32)cc1 | inconclusive: 31.6 µM [inhibitor, partial curve] | –
Cc1nnc(SCC(=O)N2CCN(S(=O)(=O)c3ccccc3)CC2)[nH]c1=O | inconclusive: 39.8 µM [inhibitor, single point] | –
CC1Cc2ccccc2N1C(=O)CN(C)CC(=O)Nc1ccc(F)cc1 (centres undefined) | inactive | –
Cc1nc(NC(=O)c2cc(-n3cnnc3)ccc2Cl)ccc1Br | inconclusive: 31.6 µM [inhibitor, partial curve, poor fit] | –
COc1cc(C2Nc3cccc4cccc(c34)N2)cc(OC)c1O | active: 22.4 µM | –
Nc1nc(NC(=O)/C=C/c2ccccc2)nn1-c1ccccc1 | inconclusive: 6.31 µM [inhibitor, single point] | –
Cc1ccc(S(=O)(=O)NC(=O)COc2ccccc2C(N)=O)cc1 | inconclusive: 5.01 µM [inhibitor, single point] | –
COc1ccc(-n2cc(CNCCc3cnc[nH]3)c(-c3cccc(F)c3)n2)cc1 | inconclusive: 1.41 µM [inhibitor, full curve, poor fit] | –
CCOC(=O)COc1ccc2nsnc2c1Cl | inactive | –
CCOC(=O)c1ccc(NC(=S)N(CCCN2CCCC2)Cc2cccs2)cc1 | inconclusive: 3.98 µM [inhibitor, full curve] | –

SMILES | Potency | activity, negative = inhibition
CN(C)/N=C/c1ccc(Sc2ccc([N+](=O)[O-])cc2[N+](=O)[O-])o1 | inconclusive: 20 µM [inhibitor, partial curve] | –
O=C1c2cc(Br)ccc2N(Cc2ccc(Br)cc2)S(=O)(=O)C1c1cc(Cl)c(Cl)cc1[N+](=O)[O-] (centres undefined) | inconclusive: 28.2 µM [inhibitor, single point] | –
CCN1C(=O)/C(=C\c2ccc(-c3ccc([N+](=O)[O-])cc3OC)o2)SC1=Nc1cccc(C(=O)O)c1 | inconclusive: 15.8 µM [inhibitor, partial curve] | –
CSc1nc2oc3c(c2c2nncn12)CC(C)(C)SC3 | inconclusive: 22.4 µM [inhibitor, partial curve] | –
Cc1cc(C)c(S(=O)(=O)NC2CC(C)(C)NC(C)(C)C2)cc1Br | inactive | –
Cc1ccc(-c2csc3nc(SCC(=O)N(C)C)n(Cc4ccccc4)c(=O)c23)cc1 | inconclusive: 5.01 µM [inhibitor, single point] | –
COc1cc(/C=N/Nc2ccccc2[N+](=O)[O-])cc(OC)c1O | inconclusive: 1.12 µM [inhibitor, full curve, poor fit] | –
CC1=CC2(C#N)C3(N=C(N)C2(C#N)C(c2ccccc2)N1)OCCO3 (centres undefined) | inconclusive: 6.31 µM [inhibitor, single point] | –
CCOc1ccc(N2C(=O)CC(NCCc3ccncc3)C2=O)cc1 (centres undefined) | inactive | –
NC1=NC(=O)C(CC(=O)Nc2ccc3c(c2)OCO3)S1 (centres undefined) | inconclusive: 22.4 µM [inhibitor, partial curve] | –
C=CCOc1ccc(/C=C/C(=O)OCC(=O)NCCCc2ccccc2)cc1 | inactive | –
O=c1[nH]c(-c2ccccn2)nc(C(F)(F)F)c1Br | inconclusive: 39.8 µM [inhibitor, single point] | –
Cc1cccc(NC(=O)CNC(=O)Cn2ncc(Cl)c(Cl)c2=O)c1C | active: 31.6 µM | –
CCOC(=O)C1=C(c2ccc(OC)cc2)C(=O)c2ccccc2C1=O | inconclusive: 39.8 µM [inhibitor, single point] | –
COc1ccccc1NC1=C(NC(C)=O)C(=O)c2ccccc2C1=O | inconclusive: 22.4 µM [inhibitor, single point] | –
O=C(O)c1ccc(Cn2nnc3sc4c(c3c2=O)CCCC4)cc1 | inconclusive: 39.8 µM [inhibitor, single point] | –
O=C(NCc1ccccn1)c1ccc(=O)oc1 | active: 15.8 µM | –
C=CCNc1oc(-c2ccc(Cl)cc2)nc1C#N | inconclusive: 20 µM [inhibitor, single point] | –
O=C(CN1CCN(S(=O)(=O)c2ccccc2)CC1)Nc1ccc2c(c1)CCC2 | inconclusive: 8.91 µM [inhibitor, full curve, poor fit] | –
Oc1cccc(C2c3[nH]c4ccccc4c3CCN2Cc2ccoc2)c1 (centres undefined) | inconclusive: 25.1 µM [inhibitor, partial curve] | –
OCC(CO)(CO)N=Cc1c(O)ccc2ccccc12 | inconclusive: 39.8 µM [inhibitor, single point] | –
Cc1cc2c(ncn2C)c(NS(=O)(=O)c2cc(Cl)ccc2Cl)c1C | inconclusive: 7.08 µM [inhibitor, single point] | –
COc1nc(NC23CC4CC(CC(C4)C2)C3)nc(OC)n1 | inconclusive: 39.8 µM [inhibitor, single point] | –

SMILES | Potency | activity, negative = inhibition
COc1ccc(-c2cc(-c3nc4ccccn4c3NCc3ccccc3)ccc2OC)cc1 | inconclusive: 31.6 µM [inhibitor, single point] | –
Nc1nnnn1CC(=O)N/N=C/c1cc([N+](=O)[O-])ccc1O | active: 0.158 µM | –
NCCNCCNCCN | – | inconclusive: -34.7% [inhibitor]
C[C@H](CO)N1C[C@H](C)[C@@H](CN(C)C(=O)Nc2ccccc2)Oc2ccc(NC(=O)Nc3ccc(C(F)(F)F)cc3)cc2C1=O | inconclusive: 35.5 µM [inhibitor, single point] | –
COc1cc(CNCc2ccccn2)ccc1OCc1ccc(Cl)c(Cl)c1 | inconclusive: 3.55 µM [inhibitor, partial curve] | –
OCCN1CCN(Cc2ccc3ccccc3c2)CC1 | inactive | –
COc1cccc(C(=O)CSc2nccn2C)c1 | inactive | –
Cc1ccc(C(=O)N2CCc3ccccc32)cc1[N+](=O)[O-] | inactive | –
COc1ccc(N2CCN(C(=O)C(C)(C)Oc3ccc(Cl)cc3)CC2)cc1 | inconclusive: 39.8 µM [inhibitor, single point] | –
Cc1ccc(Nc2nc(N)nc(CSC(=S)N3CCOCC3)n2)cc1 | inconclusive: 35.5 µM [inhibitor, single point] | –
Cc1ccccc1C1c2[nH]c3ccccc3c2CCN1CCCn1cccn1 (centres undefined) | inconclusive: 39.8 µM [inhibitor, single point] | –
Cn1c(Sc2ccc(Cl)cc2)c(C=O)c2ccccc21 | inactive | –
C#Cc1ccc([C@@H]2C=C(C(=O)N3CCOCC3)O[C@H](OCCCCO)C2)cc1 | inconclusive: 0.794 µM [inhibitor, single point] | –
N/C(=N/O)c1nc(N2CCCCC2)nc(N2CCCCC2)n1 | inconclusive: 7.08 µM [inhibitor, single point] | –
O=C(O)CSc1cc(NS(=O)(=O)c2cccc([N+](=O)[O-])c2)c2ccccc2c1O | inconclusive: 10 µM [inhibitor, partial curve] | –
COc1ccc(-c2nc(NC(=O)C3CC(=O)N(c4ccc5c(c4)OCCO5)C3)sc2C)cc1 (centres undefined) | inconclusive: 39.8 µM [inhibitor, single point] | –
O=[N+]([O-])c1ccc(-c2cn(-c3ccccc3)c(=S)[nH]2)cc1 | inactive | –
Cc1ccc(O)c(NC2=C(Cl)C(=O)N(Cc3ccccc3)C2=O)c1 | inconclusive: 28.2 µM [inhibitor, single point] | –
O=C(CSc1ccc2nnc(-c3ccc(F)cc3)n2n1)N1CCCc2ccccc21 | inactive | –
CCOc1cc(/C=N/N2CCN(Cc3ccccc3)CC2)ccc1O | inconclusive: 17.8 µM [inhibitor, partial curve] | –
CN=c1scc(-c2c[nH]c3ccccc23)n1C | inactive | –
Cc1ccc(C2CC(c3cccs3)=NN2C(=O)CSc2nc(=O)n3cc(C)ccc3n2)cc1 (centres undefined) | inconclusive: 0.891 µM [inhibitor, full curve, poor fit] | –
Cc1ccc(C)c(OCCCC(=O)Nc2ccc(N3CCOCC3)cc2)c1 | inconclusive: 28.2 µM [inhibitor, single point] | –
